Test results published in article PMC10668032.
This is one part of the list. At the low end of the ranking the order means little.

Molecular target: SIX1-Q177R homeodomain (UniProt Q15475)
Assay: universal protein binding microarray
Details: Universal all-10-mer PBM (8x60K, AMADID 030236), 300 nM GST-tagged protein, Alexa Fluor 488 anti-GST; buffer, salt, pH and temperature not stated; high values mean tight binding; most listed sequences are background and not binding sites; double strand, one strand shown

Sequence	binding signal
ACGGATTA	0.0359 E-score
CATTCGAC	0.0651 E-score
GCAATAAA	-0.183 E-score
AATCCAAT	-0.204 E-score
AGCGGGAC	-0.261 E-score
AAGGCGAT	-0.18 E-score
ATGGCAGG	-0.174 E-score
CTAGTGAC	0.00443 E-score
AGACGGCC	-0.14 E-score
GACCGTAC	-0.0799 E-score
ATGGCGAA	-0.277 E-score
ATAGAATC	-0.0937 E-score
TATTTAGA	0.0442 E-score
CTGTCAAA	-0.194 E-score
AAACCCGG	0.0514 E-score
ACCACATC	0.0577 E-score
ACTCTCCT	0.0415 E-score
CGCCCTAG	-0.0371 E-score
ACCTGACT	0.0579 E-score
ATCTTTTG	-0.338 E-score
CCTAGTCA	0.0973 E-score
AAAGACCC	0.102 E-score

Sequence	binding signal
GATGCGCC	-0.218 E-score
ATTCGTCA	-0.131 E-score
CCACTACG	-0.0483 E-score
GCACCCTA	0.226 E-score
GAGATGAC	-0.165 E-score
AGAGAATA	-0.199 E-score
CGACCTAC	0.0148 E-score
ACACGTCT	0.344 E-score
ATGGACAA	-0.034 E-score
GAACTAGA	-0.167 E-score
CGACTGCA	-0.0638 E-score
CTCCTTGA	0.0951 E-score
GTCTCGTA	-0.0192 E-score
AAATGCAT	-0.143 E-score
GATATTTA	0.0247 E-score
CACAAATA	-0.0659 E-score
ACGTCATC	-0.104 E-score
AGTAAAAA	-0.0492 E-score
CGTGGTAC	-0.138 E-score
GCACATCC	-0.292 E-score
ATGTCATG	-0.104 E-score
ATGTAGAG	-0.02 E-score

Sequence	binding signal
CCCAGCTA	-0.0464 E-score
AAGGATAG	0.025 E-score
CCGAGGGC	-0.143 E-score
GACGGTTA	-0.0383 E-score
CTATCCTC	-0.107 E-score
AGCCGGGG	0.0624 E-score
AGGAGCAA	-0.254 E-score
AGTCGAGG	0.07 E-score
AGCAGAAC	-0.187 E-score
CAGTATCC	0.162 E-score
ATAACACA	0.24 E-score
AGCAAGCT	-0.135 E-score
CGTTGGCC	-0.102 E-score
CCCGTTAA	-0.0124 E-score
GACGCTAA	-0.108 E-score
GAGAGATA	-0.00422 E-score
GAACAGCC	-0.249 E-score
AAGTAGAA	-0.122 E-score
CGCTCATA	-0.267 E-score
AGCCTGTC	-0.146 E-score
ACCATCAG	0.181 E-score
ATAATGAA	-0.0498 E-score

Sequence	binding signal
CCAGCGTC	0.0885 E-score
AAACCTGC	-0.109 E-score
ACACCTTG	0.44 E-score
CTTTTCCC	-0.279 E-score
AAATAATT	0.0072 E-score
CGAGACGC	0.091 E-score
CCGCTCTA	-0.0348 E-score
ATAGGTGG	-0.0294 E-score
CAAGTTGA	0.0197 E-score
CCTCCGAA	0.0355 E-score
ATCGGGTG	0.335 E-score
TGTATCAA	0.158 E-score
CAGCACGG	0.0171 E-score
AAAAGTAA	-0.158 E-score
ACAAATTA	-0.125 E-score
AATAGCGT	0.0621 E-score
AGGCTAAC	0.0702 E-score
AGGTCCCG	-0.131 E-score
CATTGTAC	0.00541 E-score
AGTTTTCC	0.0403 E-score
CGACACCA	0.488 E-score
ACGACTTC	-0.0524 E-score

Sequence	binding signal
AGTGCATA	0.0138 E-score
CTCTGGTC	0.062 E-score
CAATGTAA	-0.16 E-score
CATTTTCC	-0.248 E-score
CATTCCCC	-0.0211 E-score
CGAGGTCA	0.0313 E-score
GTTATCTA	-0.224 E-score
AATCTACT	-0.124 E-score
CCCGTATA	0.0426 E-score
CATTTTGG	-0.256 E-score
CAAAAATC	-0.259 E-score
GCAGACGA	-0.306 E-score
TAAACGCA	-0.031 E-score
CTAAAAGA	-0.0522 E-score
CTCGCCAG	0.145 E-score
GACGCCAC	0.201 E-score
CGATTTAG	-0.202 E-score
GTACCCAA	0.0537 E-score
ATATTATG	-0.114 E-score
ATCTTGTA	-0.0562 E-score
CCACTAGA	0.0421 E-score
